Test results reported in PubChem BioAssay AID504339 (National Center for Advancing Translational Sciences (NCATS), 2011).
Several values for one entry are separate records, joined by “and”; a condition that tells them apart may be missing. Identical values can stand only once. Among all 390,000 compounds or so, about 17,000 (4.4%) were called active. Inconclusive results, whose numbers are uncertain, are shown with a selection of clear calls. The call rests on the fitted dose curve; in most records, active means well fitted inhibition curve with a large enough effect; inconclusive means small, poorly fitted or top-dose-only effect; inactive means no such curve, though single readings can be large or run the other way. Potencies of inconclusive entries are doubtful fits and often do not repeat.
Further: nearly all actives have a fitted effect of over 50% in size.
On the % scale 0 is the no-effect control and ±100 the full control effect; potency means the concentration at half of the fitted maximal effect; tags describe the fitted curve by direction and shape.

Each compound was assayed against Lysine-specific demethylase 4A (Homo sapiens) (UniProt O75164) (assay: qHTS Assay for Inhibitors of JMJD2A-Tudor Domain). Conditions: AlphaScreen JMJD2A-Tudor / H3K4me3 peptide binding; activity change, negative = inhibition: at 114 µM (top of the series).
Chain of UniProt O75164 (O75164 whole entry, looked up, the tested form may be a part): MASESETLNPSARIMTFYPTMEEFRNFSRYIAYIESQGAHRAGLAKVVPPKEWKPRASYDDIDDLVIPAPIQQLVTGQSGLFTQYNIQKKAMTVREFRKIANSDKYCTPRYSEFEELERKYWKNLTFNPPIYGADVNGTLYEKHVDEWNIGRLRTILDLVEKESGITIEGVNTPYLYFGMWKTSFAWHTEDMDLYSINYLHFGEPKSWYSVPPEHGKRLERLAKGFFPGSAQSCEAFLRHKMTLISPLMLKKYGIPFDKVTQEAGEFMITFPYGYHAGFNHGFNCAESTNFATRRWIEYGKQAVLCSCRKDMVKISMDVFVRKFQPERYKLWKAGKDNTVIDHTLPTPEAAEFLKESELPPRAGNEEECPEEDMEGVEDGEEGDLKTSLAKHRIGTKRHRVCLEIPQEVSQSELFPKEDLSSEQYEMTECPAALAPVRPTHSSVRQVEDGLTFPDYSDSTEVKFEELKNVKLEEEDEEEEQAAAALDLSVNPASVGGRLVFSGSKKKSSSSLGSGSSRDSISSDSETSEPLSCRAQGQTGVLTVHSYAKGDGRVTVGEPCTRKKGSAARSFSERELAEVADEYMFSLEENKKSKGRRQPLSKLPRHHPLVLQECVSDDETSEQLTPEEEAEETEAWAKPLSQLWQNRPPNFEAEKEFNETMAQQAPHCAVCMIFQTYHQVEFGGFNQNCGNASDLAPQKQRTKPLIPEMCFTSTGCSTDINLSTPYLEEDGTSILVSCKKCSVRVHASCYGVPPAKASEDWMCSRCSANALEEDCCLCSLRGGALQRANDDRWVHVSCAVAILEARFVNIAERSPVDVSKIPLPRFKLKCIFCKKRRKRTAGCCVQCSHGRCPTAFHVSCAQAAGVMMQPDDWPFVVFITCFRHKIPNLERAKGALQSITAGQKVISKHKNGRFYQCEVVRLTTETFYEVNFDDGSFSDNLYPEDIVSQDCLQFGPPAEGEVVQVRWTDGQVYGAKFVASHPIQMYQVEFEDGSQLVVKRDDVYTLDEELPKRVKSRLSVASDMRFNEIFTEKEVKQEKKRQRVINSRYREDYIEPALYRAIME
With `C=CCNC(=O)C(=O)NCCCN1CCOCC1` the “activity change, negative = inhibition” value was inactive: 7.22%.
For `Cc1cc(=O)[nH]c(SCC(=O)NCC2CCCCC2)c1C#N`, the “activity change, negative = inhibition” value was inactive: -12.8%.
In the case of `O=C(CSCC(=O)NN=Cc1ccccc1O)NN=Cc1ccccc1O`, the “activity change, negative = inhibition” value is reported as inactive: -13.2%.
With `COc1ccc(-c2cc(C(=O)Nc3cc(C(F)(F)F)ccc3Cl)no2)cc1` the “activity change, negative = inhibition” value was inactive: -11.6%.
With `COc1cc(OC)c2c(c1C(CCN1CCCC1)c1ccc(N(C)C)cc1)OC(=O)CC2c1ccc(N(C)C)cc1` (stereo not given) the Potency was active: 15.8 µM.
In the case of `COc1ccc(-c2cc(C(F)(F)F)n3nc(C(=O)O)cc3n2)cc1OC`, the “activity change, negative = inhibition” value is reported as inactive: -16%.
With `O=c1[nH][nH]c(C(F)(F)F)c1C=Nc1ccccc1Cl` the Potency was inconclusive: 25.1 µM [inhibitor, partial curve].
For `Cc1ccc([N+](=O)[O-])cc1Nc1nc(N2CCCC2)nc(N2CCCC2)n1`, the Potency was inconclusive: 14.1 µM [inhibitor, full curve, poor fit].
In the case of `Cc1ccc(Cn2c(CO)cnc2SCc2ccc(F)cc2)cc1`, the Potency is reported as inconclusive: 63.1 µM [inhibitor, partial curve, poor fit].
With `COc1cccc2cc(C(=O)N3C(C)CCCC3C)c(=O)oc12` (stereo not given) the “activity change, negative = inhibition” value was inactive: -4.84%.
For `COc1ccc(NS(=O)(=O)c2ccc(N3CCCC3)c(NC(=S)Nc3ccc(SC(F)F)cc3)c2)cc1`, the Potency was active: 56.2 µM.
With `CSC(=S)N/N=C(\C)c1ccccc1` the Potency was inconclusive: 50.1 µM [inhibitor, partial curve].
`COc1ccc(CCNC(=O)c2ccc3c(c2)nc(C)n3-c2ccc(Br)cc2)cc1OC` was tested, and the Potency was inconclusive: 44.7 µM [inhibitor, partial curve].
`CCCC/C(C)=N/NC(=O)C(=O)NCCc1ccccc1` was tested, and the Potency was inconclusive: 17.8 µM [inhibitor, full curve].
`Cc1c(C(=O)N(CC(C)C)c2c(N)n(Cc3ccccc3)c(=O)[nH]c2=O)sc2nc3n(c(=O)c12)CCC3` was tested, and the “activity change, negative = inhibition” value was inactive: -13.8%.
For `Cc1ccc(C(=O)N/N=C/c2cn(Cc3ccccc3)c3ccccc23)cn1`, the Potency was inconclusive: 79.4 µM [inhibitor, partial curve].
`Fc1ccc(-c2c[nH]c(=S)n2Cc2ccccc2)cc1` was tested, and the Potency was inconclusive: 22.4 µM [inhibitor, single point].
`Cc1ccc(NC2=C(NCCO)C(=O)c3ccccc3C2=O)cc1` was tested, and the Potency was active: 50.1 µM.
`COc1cccc2cc(C(=O)N3CCN(c4ccc(C)cc4C)CC3)c(=O)oc12` was tested, and the Potency was inconclusive: 89.1 µM [inhibitor, partial curve].
With `COc1ccccc1-c1cc2nc(C)c(CCC(=O)NCc3ccco3)c(C)n2n1` the Potency was inconclusive: 56.2 µM [inhibitor, partial curve].
For `CCn1c(C)nc2cc(C(=O)NNC(=S)Nc3ccc(Cl)cc3Cl)ccc21`, the “activity change, negative = inhibition” value was inactive: -35%.
In the case of `CN(C[C@H](CC1CCCCC1)N(C[C@H](Cc1ccccc1)N(CCc1ccccc1)N=O)N=O)N=O`, the Potency is reported as inconclusive: 79.4 µM [inhibitor, partial curve].
In the case of `COCCCn1cn[nH]c1=S`, the Potency is reported as inconclusive: 39.8 µM [inhibitor, single point].
For `CCCCCCCCCCCCCCCC[n+]1cccc(C(=O)N(CC)CC)c1`, the Potency was “inactive”.
In the case of `C(=C\c1ccccc1)/CSc1nnc(-c2ccccn2)n1Cc1ccco1`, the Potency is reported as inconclusive: 79.4 µM [inhibitor, partial curve].
`Cc1ccc(-c2ccccc2)n1-c1ccc(C(=O)O)cc1` was tested, and the Potency was inconclusive: 35.5 µM [inhibitor, partial curve].
In the case of `N#Cc1nc(-c2ccco2)oc1NCc1ccccc1Cl`, the Potency is reported as inconclusive: 3.98 µM [inhibitor, partial curve, poor fit].
In the case of `CCc1ccc2[nH]c(=O)c(C(c3nnnn3CCOC)N3CCN(c4ccccc4)CC3)cc2c1` (stereo not given), the Potency is reported as inconclusive: 39.8 µM [inhibitor, partial curve, poor fit].
In the case of `Cc1ccc(N(CC(=O)N(C)Cc2ccccc2)S(C)(=O)=O)cc1C`, the “activity change, negative = inhibition” value is reported as inactive: -3.32%.
For `C=CCOc1cccc(C(=O)/C=C2/C(=O)Nc3ccccc32)c1`, the Potency was inconclusive: 15.8 µM [inhibitor, full curve].
`CCc1ccc(CSc2nccn2-c2ccccc2)cc1` was tested, and the Potency was inconclusive: 50.1 µM [inhibitor, partial curve].
`COc1cc(/C=C/C(=O)O)cc(S(=O)(=O)NCc2ccc3c(c2)OCO3)c1OC` was tested, and the Potency was inconclusive: 79.4 µM [inhibitor, partial curve].
`S=C(Nc1ccc(Cl)cc1)N(CCCN1CCOCC1)Cc1ccco1` was tested, and the “activity change, negative = inhibition” value was inactive: -18.5%.
For `CCOc1ccc(NC(=S)N/N=C(\C)Cc2ccc(OC)cc2)cc1`, the Potency was active: 7.08 µM.
In the case of `COc1ccc(C(=O)C2CCN(CC(=O)Nc3ccc(C)cc3)CC2)cc1`, the “activity change, negative = inhibition” value is reported as inactive: -14.3%.
With `Cc1ccc(CNC(=O)CCCn2c(=O)c3ccccc3n(CC(=O)Nc3ccc(C)cc3)c2=O)cc1` the “activity change, negative = inhibition” value was inactive: -12.7%.
In the case of `C/C(CC(=O)Nc1ccc(N(C)C)cc1)=N\NC(=O)c1ccc(F)cc1`, the Potency is reported as inconclusive: 39.8 µM [inhibitor, full curve, poor fit].
For `COCCn1c(=S)[nH]c2cc(C(=O)N3CCN(Cc4ccc5c(c4)OCO5)CC3)ccc2c1=O`, the Potency was inconclusive: 2.82 µM [inhibitor, full curve, poor fit].
In the case of `COc1ccc(N=C2C(=O)Nc3ccccc32)cc1`, the “activity change, negative = inhibition” value is reported as inactive: -23.9%.
For `CC(C)c1nnc(NC(=O)CCC(=O)NCc2ccco2)s1`, the Potency was inconclusive: 100 µM [inhibitor, single point].
In the case of `COc1ccc(/C=N/NC(=O)c2nnn(-c3nonc3N)c2-c2cccs2)cc1OC`, the “activity change, negative = inhibition” value is reported as inactive: -23.3%.
In the case of `Cc1nc2scc(C)n2c(=O)c1S(=O)(=O)NCC1CCN(Cc2ccc(F)cc2)CC1`, the “activity change, negative = inhibition” value is reported as inactive: -26%.
In the case of `O=C1NC(=S)S/C1=C\c1ccc2ccccc2c1`, the Potency is reported as inconclusive: 25.1 µM [inhibitor, partial curve].
With `CCCCCC(=C/c1ccccc1)/C=N/Nc1ccc(S(=O)(=O)N2CCOCC2)cc1[N+](=O)[O-]` the Potency was inconclusive: 6.31 µM [inhibitor, partial curve].
With `Cc1cccc2sc(N(CCN(C)C)C(=O)c3ccc4c(c3)OCCO4)nc12` the Potency was inconclusive: 56.2 µM [inhibitor, partial curve].
With `COc1ccc(/C=N/N2CCN(c3ccc(Cl)cc3)CC2)cc1` the “activity change, negative = inhibition” value was inactive: -17.7%.
For `COc1ccc(-c2nc(CSCC(=O)N3CCN(c4cc(Cl)ccc4C)CC3)c(C)o2)cc1`, the Potency was inconclusive: 39.8 µM [inhibitor, full curve, poor fit].
`O=C(O)COc1ccccc1/C=N/Nc1ccc(S(=O)(=O)Nc2ccc(Cl)cc2)cc1[N+](=O)[O-]` was tested, and the Potency was inconclusive: 35.5 µM [inhibitor, partial curve].
In the case of `Cc1ccsc1CNS(=O)(=O)c1ccc(F)cc1`, the Potency is reported as inconclusive: 3.16 µM [inhibitor, single point].
With `COc1ccc(CC(=O)NCc2n[nH]c(=S)n2-c2ccccc2OC)cc1` the Potency was active: 14.1 µM.
For `Cc1cc(OC(C)C(=O)Nc2cccc(-c3nc4ccccc4o3)c2)cc(C)c1Cl` (stereo not given), the “activity change, negative = inhibition” value was inactive: -5.96%.
In the case of `Cc1cc(C(=O)OCC(=O)c2ccc(Cl)c([N+](=O)[O-])c2)c2cccc(C)c2n1`, the Potency is reported as active: 22.4 µM.
In the case of `O=C(CSc1nnc(-c2ccco2)n1-c1ccccc1)N1CCN(C(=O)c2ccco2)CC1`, the activity change, negative = inhibition is reported as inactive: -31.3% [at 11.4 µM].
For `CC(=O)Nc1sc(C)c(C)c1C(=O)OCC(=O)Nc1ccccc1`, the “activity change, negative = inhibition” value was inactive: -10.1%.
`CCN(CC)C(=O)CC(c1ccc2c(c1)OCO2)c1c(OC)cc(OC)c2c(-c3ccccc3)cc(=O)oc12` (stereo not given) was tested, and the Potency was inconclusive: 12.6 µM [inhibitor, full curve, poor fit] and inconclusive: 50.1 µM [inhibitor, partial curve].
`CCc1ccc(CNc2ccc3c(c2)ncn3C(C)(C)C)cc1` was tested, and the Potency was active: 39.8 µM and active: 63.1 µM.
With `Cc1ccc(-c2nc3ncccn3c2Nc2ccc3c(c2)OCCO3)cc1` the Potency was inconclusive: 22.4 µM [inhibitor, full curve].
For `O=C(CCS(=O)(=O)c1ccc(Br)cc1)Nc1ccc(F)cc1F`, the “activity change, negative = inhibition” value was inactive: 8.97%.
For `Cc1ccc(CN2CCN(/N=C\C=C\c3ccccc3)CC2)cc1`, the Potency was active: 39.8 µM.
With `Cc1ccc(NCc2n[nH]c(=S)n2Cc2ccccc2)cc1Cl` the Potency was inconclusive: 56.2 µM [inhibitor, partial curve].
With `CN1C(C(=O)NCc2ccc(OC(F)(F)F)cc2)CC2Cn3c(nc4cc(Cl)c(Cl)cc43)C21` (stereo not given) the “activity change, negative = inhibition” value was inactive: -29.7%.
With `COc1ccc(NC(=O)CCc2c(C)nn(-c3ccc(N4CCCCC4)nn3)c2C)cc1Cl` the Potency was inconclusive: 11.2 µM [inhibitor, full curve].
`c1coc(CN2CCN(C(c3cccs3)c3nnnn3C3CCCC3)CC2)c1` (stereo not given) was tested, and the Potency was inconclusive: 89.1 µM [inhibitor, single point].
In the case of `COc1ccc(CC(=O)NCc2nnc(SCC(=O)Nc3ncc(C)s3)n2C)cc1`, the Potency is reported as inconclusive: 10 µM [inhibitor, partial curve, poor fit].
For `Cc1cccc(S(=O)(=O)N2CCn3cccc3C2C)c1` (stereo not given), the Potency was inconclusive: 56.2 µM [inhibitor, partial curve].
For `Cc1ccccc1NC(=O)CSc1nc2ccccc2c2nc(CCn3cncc3C)nn12`, the Potency was inconclusive: 39.8 µM [inhibitor, full curve].
In the case of `CCOc1c(Br)cc(C(N)=O)cc1OC`, the Potency is reported as active: 56.2 µM.
With `CCOC(=O)c1ccc(N2C(=O)c3n[nH]c(-c4ccco4)c3C2c2cccc(OC)c2)cc1` (stereo not given) the Potency was inconclusive: 20 µM [inhibitor, full curve].
In the case of `CC1CCN(CCOCCOc2ccccc2-c2ccccc2)CC1`, the Potency is reported as active: 3.16 µM.
For `COc1ccc(N2CCN(C(=O)C(=O)c3c[nH]c4ccccc34)CC2)cc1`, the Potency was inconclusive: 20 µM [inhibitor, full curve, poor fit].
